The values that follow come from the RNAGym collection of RNA variant scans (doi:10.1093/nar/gkz1192).

The source gives no read counts; variants with many changes may rest on few reads.

To fix the notation:
B1: CPEB3 Ribozyme (parent)
chain: UAACAGGGGGCCACAGCAGAAGCGUUCACGUCGCAGCCCCUGUCAGAUUCUGGUGAAUCUGCGAAUUCUGCUGUAUAUCUC

This data set covers variants of B1. As to the kind of experiment: self-cleavage, relative activity (ratio to wild type); higher = more cleavage; in vitro, sequencing. Summed up: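 For each CPEB3 ribozyme variant, relative activity is its cleaved/total read fraction divided by the unmutated ribozyme's. Barcoded error-prone PCR libraries were transcribed by T7 RNA polymerase (5 hours, 37°C) and held in DNase I for 15 min before an EDTA stop, with cleavage occurring throughout. Template-switching reverse transcription and Illumina sequencing were used to read the RNAs. A 5-read minimum applied, and results are the mean of three batches.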
U25C A45G U54A: the self-cleavage was determined as 0.46. The same measure for U25C A35U A64U U66C: 0.18; for U25C A57G U76A: 0.06.

For the variant U25A U43C U67C, the self-cleavage worked out at 0.15.

Regarding U25A U51C G61C, the self-cleavage turned out to be 0.06. The result for U25C A45G A57U reads 0.13. As to U25A U51G A56U, the self-cleavage came to 0.08.

In the case of U25C A47G U51C A75G, the self-cleavage is 0.06. On to U25C A45C U60C U78C, for which the self-cleavage came out at 0.08.

For the variant U25C A57G U60C U66C, the self-cleavage came to 0.03.

As for U25C A65U C68A, the self-cleavage worked out at 0.08. With U25C A28U A56U U74A, the self-cleavage stood at 0.07. As for U25C A47G U48C, the self-cleavage was found to be 0.19. U25C A28G U43C G63A A65U: the self-cleavage worked out at 0.12. Regarding U25C A45G U51C U66C, the self-cleavage stood at 0.2. The same measure for U25C A35U U58C U72C: 0.17; for U25C A56U C59U A64G U80C: 0.21; for U25C C32U U60A U72C: 0.32. The result for U25C A56G U76A reads 0.1; that for U25C C29U U41C U54A, 0.25; that for U25C A47C U51C, 0.18. U25C A47G U72A: the self-cleavage is 0.29. With U25C C32U A45G U48C, the self-cleavage was found to be 0.08. For the variant U25A U43C A47G A57U G63U U80C C81U, the self-cleavage came out at 0.17. For the variant U25C A28G U69C, the self-cleavage was 0.27. Turning to U25A U69C U80C, the self-cleavage is 0.11.

On to U25C A47C C50U, for which the self-cleavage was found to be 0.1. U25C C37A U54A G63A U76C: the self-cleavage turned out to be 0.09.

Take U25C A56U A75U: the self-cleavage turned out to be 0.08.

Regarding U25C A35U U54C, the self-cleavage is 0.17. Take U25C A35G U43C U58C C59U: the self-cleavage was found to be 0.11. With U25C A65C U67C U72C U78A, the self-cleavage stood at 0.07. As to U25C A56G U72C, the self-cleavage was determined as 0.16. Consider U25C A35U A64G U67A U78C, for which the self-cleavage came out at 0.12. The same measure for U25C A47G A57C: 0.06. As to U25C A47G U51A U67C, the self-cleavage was determined as 0.12. On to U25C C29A A77U U80C, for which the self-cleavage was 0.12.

With U25A U54A U67C, the self-cleavage was determined as 0.09.

Consider U25A U49C U69C, for which the self-cleavage amounted to 0.17.

For U25C A35G A45C U48C, the self-cleavage turned out to be 0.07. In the case of U25C C37A C39A A47G C50U U60C, the self-cleavage stood at 0.12. The result for U25C A45G U60C U66C reads 0; that for U25C A35U U43C A56G U66C U69A A75G, 0.04; that for U25C A56G U78C, 0.18.

As to U25C A35C U41C U49C, the self-cleavage turned out to be 0.06.

In the case of U25C A28G U43C U54C A65U, the self-cleavage is 0.2.

For U25C C38A U49C U54A U58A U60A U74A, the self-cleavage was found to be 0.1.

On to U25C C32U C38A U49C C71A, for which the self-cleavage came to 0.05.

Regarding U25C A64G U67A, the self-cleavage turned out to be 0.15. For the variant U25C C37A U54C, the self-cleavage is 0.17. On to U25C C32G U48A U78A, for which the self-cleavage was found to be 0.07. As for U25C A47G U78C, the self-cleavage came out at 0.16. With U25C A28U U43C A65G, the self-cleavage came out at 0.54. On to U25C A45U A47U U54C, for which the self-cleavage was 0.14.

On to U25C A35U A47G U60A U74A, for which the self-cleavage was 0.15. Turning to U25A U49A A64U A65G A77U, the self-cleavage was 0.07. The same measure for U25C A28U U51C: 0.11; for U25C A56G U66C U72A: 0.08; for U25C A35G U41A U54C: 0.1.

Consider U25C A28U U31A U66C U67C, for which the self-cleavage came to 0.06. Consider U25C A28U G30A A35U U51C U69A, for which the self-cleavage was found to be 0.09. On to U25A U41C U43A U60C U66C U69C, for which the self-cleavage was 0.05. Turning to U25C A28G U31A, the self-cleavage worked out at 0.11. In the case of U25C A28G U31C, the self-cleavage came out at 0.36. As to U25C C37A C71U, the self-cleavage came to 0.1. With U25C C32U G33A U48G, the self-cleavage worked out at 0.18. The same measure for U25C A35G U41A A45G U76A: 0.17; for U25C A28U C32G U54C A64U A65U: 0.05; for U25C A35U U80C: 0.26. U25C A47C U49C U72A: the self-cleavage amounted to 0.08. Turning to U25A U54A U80C, the self-cleavage is 0.43. Turning to U25C A45U U48C U60A U72C G73U, the self-cleavage was found to be 0.15.

Regarding U25C A35G C40U U54C A64U, the self-cleavage came to 0.42. For the variant U25C A28C U31C U67C, the self-cleavage was 0.18. Consider U25C C34U C39U U51C A64G, for which the self-cleavage came out at 0.08. Consider U25C A47G U51A A65G U69A, for which the self-cleavage was determined as 0.08. Consider U25A U60A A65C U74A U80A, for which the self-cleavage came to 0.08. For U25C A56G U60A A65G, the self-cleavage worked out at 0.07. U25C A56U A57G U78C: the self-cleavage worked out at 0.1. On to U25C A35G A57G A65G U67A A77C, for which the self-cleavage turned out to be 0.04.

As for U25C C34U U41A U49C U60C, the self-cleavage worked out at 0.1. For U25C C29A U43A U54C A77G C81U, the self-cleavage was found to be 0.19.

On to U25C A47G G52C U69A U78C, for which the self-cleavage amounted to 0.13. For U25C A35G U41A C44U G53C A57G, the self-cleavage stood at 0.21. In the case of U25A U69C A77U, the self-cleavage was found to be 0.15.

As for U25C C27U U60A, the self-cleavage was found to be 0.16. Turning to U25C A65G U72C U78C, the self-cleavage was 0.4. As to U25C A57C G61A U74C, the self-cleavage was found to be 0.15.

Regarding U25C A35G U41A A45G U67C U69A, the self-cleavage was determined as 0.37. On to U25C A47U U48C U69A, for which the self-cleavage was 0.3. As for U25C A35C G70A C71U, the self-cleavage turned out to be 0.13. U25C A28C C39U: the self-cleavage amounted to 0.2.

For U25C C32A C38U U60C, the self-cleavage came out at 0.13. The same measure for U25C C32U A45G A56U U69C: 0.07.

With U25A U51G U66C U72A, the self-cleavage amounted to 0.11.

U25C A28U C38U C81U: the self-cleavage came to 0.08.

For U25A U69A A77U, the self-cleavage came to 0.13.

Regarding U25A U41C A47G U58C, the self-cleavage is 0.32. Regarding U25C A35G U41A A45G, the self-cleavage came to 0.38. The result for U25C A35U U49C C50G reads 0.1; that for U25C A47G U51C A64U U74C, 0.23.

Turning to U25C A45U U49C U69C, the self-cleavage stood at 0.16. On to U25C A28U C32A U48C U78C, for which the self-cleavage came out at 0.3.

Consider U25C A45U U49A A57G A65G A75C, for which the self-cleavage worked out at 0.05. In the case of U25C A35G A64G, the self-cleavage amounted to 0.23. For the variant U25C C32A A45G U66C U78C, the self-cleavage worked out at 0.06. For the variant U25C A28G U41C, the self-cleavage came out at 0.44. In the case of U25C A35U U67C, the self-cleavage turned out to be 0.14. Consider U25C C27U A56G U67C, for which the self-cleavage came out at 0.08. As for U25A U54C A65G U69C, the self-cleavage amounted to 0.11.

With U25C A45G U67A, the self-cleavage was 0.14. For the variant U25C C27U C40A A57G U72C, the self-cleavage was 0.37. The result for U25A U43C U54C A77U reads 0.08. As for U25C A75G U76C, the self-cleavage is 0.14. In the case of U25C A35G G46A A56G, the self-cleavage was found to be 0.08. Regarding U25C A65U A75G, the self-cleavage turned out to be 0.12. U25C C27G A28G G73A U78C: the self-cleavage was 0.32.

Take U25C A65G U76A: the self-cleavage was 0.34.

As for U25C A56G U66A U69C U76A U78C, the self-cleavage was found to be 0.09. For the variant U25C A35G A47G U72C, the self-cleavage was 0.23. Take U25C C38A U72A U76C: the self-cleavage came out at 0.06. As to U25C A28G U49C, the self-cleavage amounted to 0.26. The result for U25C A35U C79U reads 0.15. The result for U25C A28C U80C reads 0.21.

As for U25C A35G U49C U78C, the self-cleavage was determined as 0.1. Consider U25C A28U A35G U60C, for which the self-cleavage amounted to 0.14. As to U25C A64G U69G, the self-cleavage was found to be 0.57. With U25A U48C U51A, the self-cleavage was 0.22.

Take U25A U41C U69C: the self-cleavage is 0.21.

With U25A U41C U69A, the self-cleavage was found to be 0.11. On to U25C A28G C39A A77G, for which the self-cleavage is 0.05. For U25C A35G U41C U60A, the self-cleavage was found to be 0.19.

On to U25C A65U G70A, for which the self-cleavage was determined as 0.09.

Regarding U25A U48C U54C C59A, the self-cleavage was determined as 0.13. As to U25C A35U U69C, the self-cleavage came out at 0.04. As to U25C A56G U69C, the self-cleavage was 0.14.

Take U25C C32U A35G U72C: the self-cleavage was found to be 0.14. The result for U25C C38G A64G reads 0.07; that for U25C A35G U43C U78A, 0.24. Take U25A U41G U51A U76C: the self-cleavage came out at 0.24. As to U25C A45U U51A U54C A56U C68U U78A, the self-cleavage stood at 0.11.

Regarding U25C A35U A65G, the self-cleavage stood at 0.13. Take U25A U49C C62U U76A: the self-cleavage was 0.04. The result for U25A U41G U58A U67A reads 0.19.

As to U25C A35G U49A G53A G63A, the self-cleavage came to 0.11.

For the variant U25C A45U U76C U80C, the self-cleavage was determined as 0.07. Regarding U25A U48C U69C U72C U78A U80C, the self-cleavage was 0.06.

With U25C A45U U48C G73U, the self-cleavage came out at 0.25. The result for U25C A45U A47G U54A U72C reads 0.17.

Regarding U25A U60A U78C, the self-cleavage was 0.08. The result for U25C A28G C37U A45G U67C reads 0.06. As to U25C A35G U43C U51C U60C, the self-cleavage came to 0.05. Take U25A U49A U51A G53A U54C U67A: the self-cleavage stood at 0.06. As to U25A U48G A64G U74C, the self-cleavage is 0.06.

With U25C A28U G52C, the self-cleavage worked out at 0.09. Consider U25C A45C U48C U60G U80C, for which the self-cleavage was 0.15. As to U25C C38A U43A, the self-cleavage is 0.08.

U25C A28G A35U A56G G61C U76A U80C: the self-cleavage was 0.04. For U25C A56U U74A A75G, the self-cleavage was determined as 0.03. The same measure for U25C C29A C59A U69C U78A: 0.14; for U25C A56G C62G C71G: 0.1; for U25C A28C C59G U80C: 0.06. On to U25C A57G A64G U78C, for which the self-cleavage worked out at 0.12. For U25C A57G U80A, the self-cleavage worked out at 0.1. For the variant U25C C27U A64U U69C, the self-cleavage turned out to be 0.33.

U25C A57G C71U C81U: the self-cleavage was determined as 0.08. As to U25C C32U U76C, the self-cleavage stood at 0.14.
